Data taken from a protein production outcome set (Wang et al. 2014).

Experiment: label from the status in PepcDB records

| Sequence | protein production |
| --- | --- |
| YKLVCYYTSWSQYREGDGSCFPDALDRFLCTHIIYSFANISNDHIDTWEWNDVTLYGMLNTLKNRNPNLKTLLSVGGWNFGSQRFSKIASNTQSRRTFIKSVPPFLRTHGFDGLDLAWLYPGRRDKQHFTTLIKEMKAEFIKEAQPGKKQLLLSAALSAGKVTIDSSYDIAKISQHLDFISIMTYDFHGAWRGTTGHHSPLFRGQEDASPDRFSNTDYAVGYMLRLGAPASKLVMGIPTFGRSFTLASSETGVGAPISGPGIPGRFTKEAGTLAYYEICDFLRGATVHRTLGQQVPYATKGNQWVGYDDQESVKSKVQYLKDRQLAGAMVWALDLDDFQGSFCGQDLRFPLTNAIKDALAAT | failed |
| MKDIDTLISNNALWSKMLVEEDPGFFEKLAQAQKPRFLWIGCSDSRVPAERLTGLEPGELFVHRNVANLVIHTDLNCLSVVQYAVDVLEVEHIIICGHYGCGGVQAAVENPELGLINNWLLHIRDIWFKHSSLLGEMPQERRLDTLCELNVMEQVYNLGHSTIMQSAWKRGQKVTIHGWAYGIHDGLLRDLDVTATNRETLEQRYRHGISNLKLKHANHK | not failed |
